Reference: publication PMC4336329 (PLoS ONE, 2015)
The campaign covered roughly 310,000 compounds. About 14,000 (4.5%) showed an effect of 50% or more. Effects have a minus sign here. Some of the results follow.

target: human ether-à-go-go-related gene (hERG) potassium channel (human, UniProt Q12809); test: primary screen, population patch clamp on CHO cells stably expressing hERG
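Note: peak tail current of the secondary pulse compared with the same well before compound.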

human ether-à-go-go-related gene (hERG) potassium channel, sequence (Q12809 whole entry, looked up): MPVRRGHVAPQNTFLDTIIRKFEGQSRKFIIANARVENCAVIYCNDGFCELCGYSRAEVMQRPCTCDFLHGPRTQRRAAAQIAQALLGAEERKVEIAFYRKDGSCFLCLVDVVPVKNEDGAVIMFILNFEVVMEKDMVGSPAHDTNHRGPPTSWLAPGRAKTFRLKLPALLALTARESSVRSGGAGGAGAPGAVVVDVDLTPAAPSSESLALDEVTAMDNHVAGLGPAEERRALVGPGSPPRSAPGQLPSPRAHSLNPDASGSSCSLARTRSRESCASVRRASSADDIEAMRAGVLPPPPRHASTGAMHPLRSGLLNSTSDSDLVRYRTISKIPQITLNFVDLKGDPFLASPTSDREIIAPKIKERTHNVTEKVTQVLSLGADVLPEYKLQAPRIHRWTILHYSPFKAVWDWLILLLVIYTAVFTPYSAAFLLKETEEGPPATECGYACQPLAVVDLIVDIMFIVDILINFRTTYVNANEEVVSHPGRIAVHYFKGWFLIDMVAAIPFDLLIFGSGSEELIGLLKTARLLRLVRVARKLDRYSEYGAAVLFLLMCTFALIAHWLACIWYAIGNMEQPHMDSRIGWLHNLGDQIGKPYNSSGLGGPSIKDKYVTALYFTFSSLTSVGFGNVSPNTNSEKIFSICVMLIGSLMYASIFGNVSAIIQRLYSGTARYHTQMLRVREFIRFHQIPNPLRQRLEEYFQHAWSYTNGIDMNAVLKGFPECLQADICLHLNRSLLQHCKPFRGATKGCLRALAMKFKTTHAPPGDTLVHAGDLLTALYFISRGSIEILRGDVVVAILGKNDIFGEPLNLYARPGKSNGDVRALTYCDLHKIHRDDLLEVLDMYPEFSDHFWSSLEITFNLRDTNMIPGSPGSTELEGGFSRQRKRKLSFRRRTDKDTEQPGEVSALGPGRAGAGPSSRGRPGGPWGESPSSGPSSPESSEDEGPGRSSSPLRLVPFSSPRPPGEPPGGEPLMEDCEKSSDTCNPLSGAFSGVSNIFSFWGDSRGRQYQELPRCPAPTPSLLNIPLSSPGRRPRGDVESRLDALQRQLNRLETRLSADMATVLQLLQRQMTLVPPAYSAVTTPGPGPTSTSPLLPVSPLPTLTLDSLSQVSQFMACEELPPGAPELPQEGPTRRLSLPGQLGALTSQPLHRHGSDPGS

SMILES | hERG current change (%, negative = inhibition) at 10uM [%]
CN(NC(N)=O)c1ncc(C(F)(F)F)cc1Cl | 3.8
Cc1cccn2c(=O)nc(SCC(=O)N3CCN(c4ccccc4)CC3)nc12 | -67.6
CCC(C)n1c(=S)[nH]c2c(sc3ccc([N+](=O)[O-])cc32)c1=O (stereo not shown) | 9.95
CCOC(=O)CC(NC(=O)c1cccc2c1C(=O)N(Cc1cccnc1)C2)c1ccc(OC(C)C)cc1 (stereo not shown) | 11.9
COc1ccc(NC(=O)C(CCSC)NC(N)=O)cc1Cl (stereo not shown) | 27.6
Cc1cccc(NC(=O)c2nc[nH]c2C(=O)N2CCc3ccccc3C2)c1 | 5.13
O=C(NNS(=O)(=O)c1ccc(Cl)cc1)c1sccc1-n1cccc1 | -2.65
CCCCCOc1ccc(NC(=O)C(=O)NCCC2=CCCCC2)cc1 | 6.54
COc1ccccc1N1C(=O)CSC1=NC(=O)c1ccccc1 | 4.68
N#Cc1ccc(C23CC4(C2)[C@H](CN(CC2CCCCC2)[C@@H]4c2ccccc2)C3c2ccccc2)cc1 (stereo partly shown) | -13.6
Cc1ccc(C(C(=O)NC2CCCC2)N(CCCO)C(=O)Cn2nnc(-c3ccc(C)o3)n2)cc1 (stereo not shown) | 15.3
COc1ccc(C(NC(=O)/C=C/c2ccco2)c2ccc(OC)c(OC)c2)cc1 (stereo not shown) | -11.2
CSc1nc(-c2ccco2)cc(C(F)(F)F)c1C#N | 24.5
Cc1ccc(C(=O)NNC(=O)c2ccc(Br)s2)cc1S(=O)(=O)N1CCOCC1 | -26.2
COc1cccc(N/C(SC)=C(/C#N)C(N)=O)c1 | -10.1
O=C(Nc1nnc(SCc2ccc(F)cc2)s1)c1ccc2c(c1)C(=O)N(c1ccccc1Cl)C2=O | 40.4
CCCOc1c(Br)cc(C(=O)OCC(=O)NC(=O)c2cccn2C)cc1OC | 12.3
CCCCNC(=O)C1CCC(=O)N1CCc1ccccc1 (stereo not shown) | 18.2
O=C(CNC(=O)N1CC(=O)Nc2ccccc21)NCCc1cccc(F)c1 | 10.7
Cc1cccc(NC(=O)Cn2c(=O)n(Cc3ccco3)c(=N)c3c4c(sc32)COC(C)(C)C4)c1 | -6.46
O=C(CSc1nnc(NC(=O)c2ccco2)s1)Nc1cccc(F)c1 | -4.91
CCC(=O)c1ccc2c(c1)OCCO2 | 3.36

SMILES | hERG current change (%, negative = inhibition) at 10uM [%]
CCOC(=O)c1cccc(OCC(O)CNCCOc2ccccc2F)c1 (stereo not shown) | -63
Cc1cc(C)nc(N/N=C/c2cc(C)n(CC(F)(F)F)c2C)n1 | 3.98
CCCCCn1c(CN2CCCCC2C)nc2c1c(=O)n(C)c(=O)n2C (stereo not shown) | -44.7
COC(=O)CNC(=O)CSc1nnc(-c2ccc(OC)cc2)n1CC(C)C | 4.97
CCn1c(CNC(=O)c2ccc(OC)c(OC)c2)nnc1SCC(=O)c1ccc(OC)cc1 | -0.747
O=C(O)CSc1nnc(-c2cccnc2)n1Cc1ccccc1 | 10.4
Fc1ccc(SCCc2cccc[nH+]2)cc1.O=P([O-])(O)O | 9.83
CCN(C(=O)COc1ccccc1)C1CCCCC1 | 7.42
Cc1ccccc1Nc1nc(N)nc(CSCc2c(C)noc2C)n1 | 7.34
O=C(NCCCN1CCCCC1)c1ccc2c(c1)ncn2C1CCCC1 | 8.82
CCCn1nc(C(=O)NCC(C)(C)N2CCOCC2)c2ccccc2c1=O | -17.5
C[C@@H](NC(=O)c1nc[nH]c1C(=O)NC1CCN(C(=O)OC(C)(C)C)CC1)c1ccccc1 | -14.4
CC(C)CSc1nnc2c3ccccc3n(C)c2n1 | -11.9
Cc1c(NC(=O)N2CCCCCC2)c(=O)n(-c2ccccc2)n1C | 13.8
CCOn1c(=O)c(-c2cc(OC)ccc2OC)[n+]([O-])c2ccccc21 | 14
CC(NC(=O)C1CCCN(S(=O)(=O)c2cnc[nH]2)C1)c1ccccc1 (stereo not shown) | -4.22
Cc1ccc(S(=O)(=O)CCC(=O)OCC(=O)c2c(N)n(CC(C)C)c(=O)n(C)c2=O)cc1 | -27.9
Cc1ncc(CN2CCCC(C(=O)Nc3ccc(-c4cccc(F)c4)cc3)C2)n1C (stereo not shown) | -69.5
O=C(CCNS(=O)(=O)c1ccccc1C(F)(F)F)N1CCN(S(=O)(=O)c2cccc(F)c2)CC1 | -5.52
O=c1cc(N2CCN(c3ccccc3)CC2)[nH]c(=O)n1-c1ccccc1 | 7.02
CS(=O)(=O)Nc1ccccc1Oc1ccccc1 | 15.7
Cc1nc2c3ccccc3nc(NNC(=O)CCC(=O)NC(C)C)n2n1 | 13.3

SMILES | hERG current change (%, negative = inhibition) at 10uM [%]
Cc1cc(C)nc(N2CCCC(C(=O)Nc3cc(F)ccc3C)C2)n1 (stereo not shown) | -3.45
Cc1oc(-c2cccc(F)c2)nc1CN1CCCCC1CCc1ccccn1 (stereo not shown) | -91.5
CCCCn1nnnc1NCc1ccc(OC)c(OC)c1OC | -4.07
Br.CCN1C2=NCCCN2c2cc(C)c(C)cc21 | -23.2
COc1ccc(NC2CCCN(C(=O)CCc3ccccc3F)C2)cc1 (stereo not shown) | -10.7
CC(=O)O.CC(C)CC1NC(C(=O)O)Cc2c1[nH]c1ccccc21 (stereo not shown) | 15.3
Cc1ccc(CC2S/C(=N/c3ccccn3)NC2=O)cc1 (stereo not shown) | 20.8
Cc1ccccc1CN1CCN(CCCc2ccccc2)C(CCO)C1 (stereo not shown) | -70
O=[N+]([O-])c1ccccc1/C=C/CN1CCN(Cc2ccc3c(c2)OCO3)CC1 | -46.5
CCn1c(SCC(=O)N2CCCC(C)C2)nc2c1c(=O)n(C)c(=O)n2C (stereo not shown) | 0.929
C=CC[C@@H](C)CC(=O)C(CCCN=[N+]=[N-])SOOc1ccccc1 (stereo partly shown) | -5.93
CN(C)c1ccc(/C=C/C(=O)c2cc(Cl)ccc2O)cc1 | 6.87
FC(F)(F)c1cccc(Sc2nc(-c3ccccc3)nnc2C(F)(F)F)c1 | 10.2
CC(NC(=O)[C@H](C)NC(=O)c1ccco1)c1ccc(S(N)(=O)=O)cc1 (stereo partly shown) | 18.9
CCOc1ccccc1/C=C/c1nc2ccccc2[nH]c1=O | 6.38
Cc1ccccc1-c1nc2sc(C)c(C)c2c(=O)o1 | 17.7
CCOc1cccc(-c2c(C(=O)N/N=C/c3ccoc3)nnn2-c2nonc2N)c1 | 16.8
Cc1ccc(NC(=O)c2cc(=O)[nH]c3ccccc23)cc1 | 18.4
CC(C)(C)OC(=O)N1CCN(C(=O)c2[nH]cnc2C(=O)NCc2ccccc2)CC1 | -5.89
COCCCn1c(SCC(=O)N2CCOCC2)nnc1-c1ccco1 | 18.7
O=C(NCc1ccc(F)cc1)c1ccncc1 | 13.7
COc1ccc(OC)c(NC(=O)C2CCN(S(C)(=O)=O)CC2)c1 | 17.7

SMILES | hERG current change (%, negative = inhibition) at 10uM [%]
O=C(COc1ccccc1)N1CCN(c2ccccc2)CC1 | -3.1
COc1nc(Nc2cccc([N+](=O)[O-])c2)nc(OC)n1 | 4.39
Cc1ccc(C(=O)N/C(=C\c2ccc(-c3cc(Cl)ccc3Cl)o2)C(=O)NCc2cccnc2)cc1 | 2.81
O=C(Nc1ccccc1)N(CCCN1CCOCC1)Cc1ccccc1F | -20.6
CC(=O)Nc1ccc(NC(=O)CCC(=O)OCC(=O)c2ccc(C)c([N+](=O)[O-])c2)cc1 | 18.7
Cc1cccc(-n2nnnc2SC(C)C(=O)NCCC2=CCCCC2)c1 (stereo not shown) | -19.4
O=C1C(=O)N(CCN2CCOCC2)C(c2ccccn2)/C1=C(/O)c1ccc(F)cc1 (stereo not shown) | -3.48
Cc1cc(C)c(S(=O)(=O)c2cccc(Cl)c2)c(=O)[nH]1 | 8.07
CC1CCCCC12NC(=S)N(c1ccccc1)N2 (stereo not shown) | 6.81
Cc1nc2ccccc2c2oc(C(=O)N3CCC(N4CCCCC4)CC3)cc12 | -38.8
COc1ccc(N(CC(C)C)S(=O)(=O)c2nnc(NC(=O)CC(C)C)s2)cc1 | 23.5
CCCn1c(C)nnc1SCC(=O)NC1CCCCC1 | -2.31
Cc1cc(=O)oc2cc(NC(=O)Cc3ccccc3[N+](=O)[O-])ccc12 | 10
Cc1ccc(C(=O)C2=C(O)C(=O)N(c3ncccn3)C2c2ccccc2F)o1 (stereo not shown) | 29
Cc1ccc(-c2nnn(CC(=O)N(Cc3ccccc3)C(C(=O)NC3CCCC3)c3ccncc3)n2)o1 (stereo not shown) | -24.3
O=C(Nc1ccc2[nH]c(=O)[nH]c2c1)c1cc(F)c(F)cc1Cl | 20.4
COCCCNc1nc2c(-c3cccc(C)c3)nnn2c2ccc(Cl)cc12 | 11.3
COc1cc2c(c(OC)c1)C(=O)OC(C)CCCC(=O)CCCCC2 (stereo not shown) | 19.7
CCOC(=O)c1c(C)[nH]c(N=Nc2ccc(OC)cc2)c1C | -0.496
CCCCC(CC)CNC(=O)CCS(=O)(=O)c1cccc2nsnc12 (stereo not shown) | -11.8
Cl.c1csc(CNc2ccc3c(c2)OCCO3)c1 | -2.03
CSCCC(NC(=O)c1ccccc1Br)C(=O)NNC(=O)c1csc(N2CCOCC2)n1 (stereo not shown) | -33.5
